Here are results for 12 sequences from the supplement of paper PMC12230231.

± gives the standard deviation of the averaged measurements. Restriction of a single-cycle SIVsab GFP reporter by TRIM5α v1-loop variants in CRFK cells. Human variants: read share among cells still uninfected after two challenges over input, higher = gained restriction. Rhesus variants: share among infected cells over input, higher = lost restriction. Reporter dose not given per row. No active / inactive call per row; the paper calls a change when both replicates lie above its controls (mean + 2 SD of stop or wild-type variants, or the top frameshift score). Residues outside the varied loop are taken from Swiss-Prot. The paper reads the human single-substitution scores as noise; they and the rhesus combinations repeat poorly (rank correlation 0.3 to 0.4), indel scores repeat only for the top variants, rhesus substitutions well (0.9).

The subject of the data set is SIVsab (simian immunodeficiency virus of sabaeus monkeys), single-cycle GFP reporter, in CRFK cells. Description: enrichment among uninfected cells over input (fold); higher = stronger restriction. As to conditions: library: insertions and deletions. As to the method:
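Pools of CRFK cells expressing variants of the TRIM5α v1 loop were challenged with the single-cycle reporter, sorted by GFP and sequenced; mean of two replicates.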
On to “MASGILVNVKEEVTCPICLELLTQPLSLDCGHSFCQACLTANHKKSMLDKGESSCPVCRISYQPENIRPNRHVANIVEKLREVKLSPEGQKVDHCARHGEKLLLFCQEDGKVICWLCERSQEHRGHHTFLTEEVAREYQVKLQAALEMLRQKQQEAEELEADIREEKASWKTQIQYDKTNVLADFEQLRDILDWEESNELQNLEKEEEDILKSLTNSETEMVQQTQSLRELISDLEHRLQGSVMELLQGVDGVIKRTENVTLKKPETFPKNQRRVFRAPDLKGMLEVFRELTDVRRYWVDVTVAPNNISCAVISEDKRQVSSPKPQIIYGARKPQIIYGARGTRYQTFVNFNYCTGILGSQSITSGKHYWEVDVSKKTAWILGVCAGFQPDAMCNIEKNENYQPKYGYWVIGLEEGVKCSAFQDSSFHTPSVPFIVPLSVIICPDRVGVFLDYEACTVSFFNITNHGFLIYKFSHCSFSQPVFPYLNPRKCGVPMTLCSPSS [human TRIM5α, 9-codon duplication at 324]”, for which the enrichment is 0.292 ± 0.4.

“MASGILVNVKEEVTCPICLELLTQPLSLDCGHSFCQACLTANHKKSMLDKGESSCPVCRISYQPENIRPNRHVANIVEKLREVKLSPEGQKVDHCARHGEKLLLFCQEDGKVICWLCERSQEHRGHHTFLTEEVAREYQVKLQAALEMLRQKQQEAEELEADIREEKASWKTQIQYDKTNVLADFEQLRDILDWEESNELQNLEKEEEDILKSLTNSETEMVQQTQSLRELISDLEHRLQGSVMELLQGVDGVIKRTENVTLKKPETFPKNQRRVFRAPDLKGMLEVFRELTDVRRYWVDVTVAPNNISCAVISEDKRQVSSPKPQIIYGARNFNYCTGILGSQSITSGKHYWEVDVSKKTAWILGVCAGFQPDAMCNIEKNENYQPKYGYWVIGLEEGVKCSAFQDSSFHTPSVPFIVPLSVIICPDRVGVFLDYEACTVSFFNITNHGFLIYKFSHCSFSQPVFPYLNPRKCGVPMTLCSPSS [human TRIM5α, 8-codon deletion at 333]” returned an enrichment of 2.08 ± 1.3.

On to “MASGILVNVKEEVTCPICLELLTQPLSLDCGHSFCQACLTANHKKSMLDKGESSCPVCRISYQPENIRPNRHVANIVEKLREVKLSPEGQKVDHCARHGEKLLLFCQEDGKVICWLCERSQEHRGHHTFLTEEVAREYQVKLQAALEMLRQKQQEAEELEADIREEKASWKTQIQYDKTNVLADFEQLRDILDWEESNELQNLEKEEEDILKSLTNSETEMVQQTQSLRELISDLEHRLQGSVMELLQGVDGVIKRTENVTLKKPETFPKNQRRVFRAPDLKGMLEVFRELTDVRRYWVDVTVAPNNISCAVISEDKRQVSSPKPQIIYGARPQIIYGARGTRYQTFVNFNYCTGILGSQSITSGKHYWEVDVSKKTAWILGVCAGFQPDAMCNIEKNENYQPKYGYWVIGLEEGVKCSAFQDSSFHTPSVPFIVPLSVIICPDRVGVFLDYEACTVSFFNITNHGFLIYKFSHCSFSQPVFPYLNPRKCGVPMTLCSPSS [human TRIM5α, 8-codon duplication at 325]”, for which the enrichment was found to be 0.386 ± 0.06.

Sequence “MASGILVNVKEEVTCPICLELLTQPLSLDCGHSFCQACLTANHKKSMLDKGESSCPVCRISYQPENIRPNRHVANIVEKLREVKLSPEGQKVDHCARHGEKLLLFCQEDGKVICWLCERSQEHRGHHTFLTEEVAREYQVKLQAALEMLRQKQQEAEELEADIREEKASWKTQIQYDKTNVLADFEQLRDILDWEESNELQNLEKEEEDILKSLTNSETEMVQQTQSLRELISDLEHRLQGSVMELLQGVDGVIKRTENVTLKKPETFPKNQRRVFRAPDLKGMLEVFRELTDVRRYWVDVTVAPNNISCAVISEDKRQVSSPKPQIIYGARQIIYGARGTRYQTFVNFNYCTGILGSQSITSGKHYWEVDVSKKTAWILGVCAGFQPDAMCNIEKNENYQPKYGYWVIGLEEGVKCSAFQDSSFHTPSVPFIVPLSVIICPDRVGVFLDYEACTVSFFNITNHGFLIYKFSHCSFSQPVFPYLNPRKCGVPMTLCSPSS [human TRIM5α, 7-codon duplication at 326]” had an enrichment of 0.197 ± 0.14.

“MASGILVNVKEEVTCPICLELLTQPLSLDCGHSFCQACLTANHKKSMLDKGESSCPVCRISYQPENIRPNRHVANIVEKLREVKLSPEGQKVDHCARHGEKLLLFCQEDGKVICWLCERSQEHRGHHTFLTEEVAREYQVKLQAALEMLRQKQQEAEELEADIREEKASWKTQIQYDKTNVLADFEQLRDILDWEESNELQNLEKEEEDILKSLTNSETEMVQQTQSLRELISDLEHRLQGSVMELLQGVDGVIKRTENVTLKKPETFPKNQRRVFRAPDLKGMLEVFRELTDVRRYWVDVTVAPNNISCAVISEDKRQVSSPKPQIIYGARQTFVNFNYCTGILGSQSITSGKHYWEVDVSKKTAWILGVCAGFQPDAMCNIEKNENYQPKYGYWVIGLEEGVKCSAFQDSSFHTPSVPFIVPLSVIICPDRVGVFLDYEACTVSFFNITNHGFLIYKFSHCSFSQPVFPYLNPRKCGVPMTLCSPSS [human TRIM5α, 4-codon deletion at 333]”: the enrichment amounted to 1.22 ± 0.15.

For the sequence “MASGILVNVKEEVTCPICLELLTQPLSLDCGHSFCQACLTANHKKSMLDKGESSCPVCRISYQPENIRPNRHVANIVEKLREVKLSPEGQKVDHCARHGEKLLLFCQEDGKVICWLCERSQEHRGHHTFLTEEVAREYQVKLQAALEMLRQKQQEAEELEADIREEKASWKTQIQYDKTNVLADFEQLRDILDWEESNELQNLEKEEEDILKSLTNSETEMVQQTQSLRELISDLEHRLQGSVMELLQGVDGVIKRTENVTLKKPETFPKNQRRVFRAPDLKGMLEVFRELTDVRRYWVDVTVAPNNISCAVISEDKRQVSSPKPQIIYGARRYQTFVNFNYCTGILGSQSITSGKHYWEVDVSKKTAWILGVCAGFQPDAMCNIEKNENYQPKYGYWVIGLEEGVKCSAFQDSSFHTPSVPFIVPLSVIICPDRVGVFLDYEACTVSFFNITNHGFLIYKFSHCSFSQPVFPYLNPRKCGVPMTLCSPSS [human TRIM5α, 2-codon deletion at 333]”, the enrichment came to 0.835 ± 0.19.

“MASGILVNVKEEVTCPICLELLTQPLSLDCGHSFCQACLTANHKKSMLDKGESSCPVCRISYQPENIRPNRHVANIVEKLREVKLSPEGQKVDHCARHGEKLLLFCQEDGKVICWLCERSQEHRGHHTFLTEEVAREYQVKLQAALEMLRQKQQEAEELEADIREEKASWKTQIQYDKTNVLADFEQLRDILDWEESNELQNLEKEEEDILKSLTNSETEMVQQTQSLRELISDLEHRLQGSVMELLQGVDGVIKRTENVTLKKPETFPKNQRRVFRAPDLKGMLEVFRELTDVRRYWVDVTVAPNNISCAVISEDKRQVSSPKPQIIYGARTFVNFNYCTGILGSQSITSGKHYWEVDVSKKTAWILGVCAGFQPDAMCNIEKNENYQPKYGYWVIGLEEGVKCSAFQDSSFHTPSVPFIVPLSVIICPDRVGVFLDYEACTVSFFNITNHGFLIYKFSHCSFSQPVFPYLNPRKCGVPMTLCSPSS [human TRIM5α, 5-codon deletion at 333]” registered an enrichment of 0.753 ± 0.69.

In the case of “MASGILVNVKEEVTCPICLELLTQPLSLDCGHSFCQACLTANHKKSMLDKGESSCPVCRISYQPENIRPNRHVANIVEKLREVKLSPEGQKVDHCARHGEKLLLFCQEDGKVICWLCERSQEHRGHHTFLTEEVAREYQVKLQAALEMLRQKQQEAEELEADIREEKASWKTQIQYDKTNVLADFEQLRDILDWEESNELQNLEKEEEDILKSLTNSETEMVQQTQSLRELISDLEHRLQGSVMELLQGVDGVIKRTENVTLKKPETFPKNQRRVFRAPDLKGMLEVFRELTDVRRYWVDVTVAPNNISCAVISEDKRQVSSPKPQIIYGARTRYQTFVNFNYCTGILGSQSITSGKHYWEVDVSKKTAWILGVCAGFQPDAMCNIEKNENYQPKYGYWVIGLEEGVKCSAFQDSSFHTPSVPFIVPLSVIICPDRVGVFLDYEACTVSFFNITNHGFLIYKFSHCSFSQPVFPYLNPRKCGVPMTLCSPSS [human TRIM5α, 1-codon deletion at 333]”, the enrichment came to 0.539 ± 0.31.

“MASGILVNVKEEVTCPICLELLTQPLSLDCGHSFCQACLTANHKKSMLDKGESSCPVCRISYQPENIRPNRHVANIVEKLREVKLSPEGQKVDHCARHGEKLLLFCQEDGKVICWLCERSQEHRGHHTFLTEEVAREYQVKLQAALEMLRQKQQEAEELEADIREEKASWKTQIQYDKTNVLADFEQLRDILDWEESNELQNLEKEEEDILKSLTNSETEMVQQTQSLRELISDLEHRLQGSVMELLQGVDGVIKRTENVTLKKPETFPKNQRRVFRAPDLKGMLEVFRELTDVRRYWVDVTVAPNNISCAVISEDKRQVSSPKPQIIYGARVNFNYCTGILGSQSITSGKHYWEVDVSKKTAWILGVCAGFQPDAMCNIEKNENYQPKYGYWVIGLEEGVKCSAFQDSSFHTPSVPFIVPLSVIICPDRVGVFLDYEACTVSFFNITNHGFLIYKFSHCSFSQPVFPYLNPRKCGVPMTLCSPSS [human TRIM5α, 7-codon deletion at 333]”: the enrichment was found to be 0.411 ± 0.35.

“MASGILVNVKEEVTCPICLELLTQPLSLDCGHSFCQACLTANHKKSMLDKGESSCPVCRISYQPENIRPNRHVANIVEKLREVKLSPEGQKVDHCARHGEKLLLFCQEDGKVICWLCERSQEHRGHHTFLTEEVAREYQVKLQAALEMLRQKQQEAEELEADIREEKASWKTQIQYDKTNVLADFEQLRDILDWEESNELQNLEKEEEDILKSLTNSETEMVQQTQSLRELISDLEHRLQGSVMELLQGVDGVIKRTENVTLKKPETFPKNQRRVFRAPDLKGMLEVFRELTDVRRYWVDVTVAPNNISCAVISEDKRQVSSPKPQIIYGARYGARGTRYQTFVNFNYCTGILGSQSITSGKHYWEVDVSKKTAWILGVCAGFQPDAMCNIEKNENYQPKYGYWVIGLEEGVKCSAFQDSSFHTPSVPFIVPLSVIICPDRVGVFLDYEACTVSFFNITNHGFLIYKFSHCSFSQPVFPYLNPRKCGVPMTLCSPSS [human TRIM5α, 4-codon duplication at 329]” registered an enrichment of 0.606 ± 0.39.

The sequence “MASGILVNVKEEVTCPICLELLTQPLSLDCGHSFCQACLTANHKKSMLDKGESSCPVCRISYQPENIRPNRHVANIVEKLREVKLSPEGQKVDHCARHGEKLLLFCQEDGKVICWLCERSQEHRGHHTFLTEEVAREYQVKLQAALEMLRQKQQEAEELEADIREEKASWKTQIQYDKTNVLADFEQLRDILDWEESNELQNLEKEEEDILKSLTNSETEMVQQTQSLRELISDLEHRLQGSVMELLQGVDGVIKRTENVTLKKPETFPKNQRRVFRAPDLKGMLEVFRELTDVRRYWVDVTVAPNNISCAVISEDKRQVSSPKPQIIYGARYQTFVNFNYCTGILGSQSITSGKHYWEVDVSKKTAWILGVCAGFQPDAMCNIEKNENYQPKYGYWVIGLEEGVKCSAFQDSSFHTPSVPFIVPLSVIICPDRVGVFLDYEACTVSFFNITNHGFLIYKFSHCSFSQPVFPYLNPRKCGVPMTLCSPSS [human TRIM5α, 3-codon deletion at 332]” returned an enrichment of 0.138 ± 0.15.

As for “MASGILVNVKEEVTCPICLELLTQPLSLDCGHSFCQACLTANHKKSMLDKGESSCPVCRISYQPENIRPNRHVANIVEKLREVKLSPEGQKVDHCARHGEKLLLFCQEDGKVICWLCERSQEHRGHHTFLTEEVAREYQVKLQAALEMLRQKQQEAEELEADIREEKASWKTQIQYDKTNVLADFEQLRDILDWEESNELQNLEKEEEDILKSLTNSETEMVQQTQSLRELISDLEHRLQGSVMELLQGVDGVIKRTENVTLKKPETFPKNQRRVFRAPDLKGMLEVFRELTDVRRYWVDVTVAPNNISCAVISEDKRQVSSPKPQIIYGARYQTFVNFNYCTGILGSQSITSGKHYWEVDVSKKTAWILGVCAGFQPDAMCNIEKNENYQPKYGYWVIGLEEGVKCSAFQDSSFHTPSVPFIVPLSVIICPDRVGVFLDYEACTVSFFNITNHGFLIYKFSHCSFSQPVFPYLNPRKCGVPMTLCSPSS [human TRIM5α, 3-codon deletion at 333]”, the enrichment came to 0.543 ± 0.45.
